Data set [1] deals with GL261. The data set is described as follows: cell viability relative to siNT1 (ATP content); H4 human neuroglioma and GL261 mouse glioma; higher = less toxic. Particulars: siRNA concentration 25 nM; 96 h; mouse.
Data set [2] deals with H4. The data set is described as above. Conditions: siRNA concentration 10 nM; 96 h; human.

Shown are siRNA guide strands that differ only in the seed, positions 2 to 7.
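Further: cells reverse transfected with siRNA duplexes via lipid reagent, ATP read by luminescence, triplicate wells, values scaled to mean viability with non-targeting control siNT1.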

UUCCUUAACAUGUAAACCA: the cell viability (commonly a read-out of living cells in per cent, often relative to untreated cells) was 53.1% in data set [1] and 110% in data set [2].
The matching figures for UUCCUUCACAUGUAAACCA: 19.2% and 51.5%.
The matching figures for UUCCUUGACAUGUAAACCA: 37.9% and 118%.
On to UUCCUUUACAUGUAAACCA, for which the cell viability in data set [1] stood at 42.6%; in data set [2] it was 96.8%.
The matching figures for UUCGAAAACAUGUAAACCA: 73.6% and 83.9%.
The matching figures for UUCGAACACAUGUAAACCA: 72.5% and 90.2%.
The matching figures for UUCGAAGACAUGUAAACCA: 70.7% and 77.7%.
UUCGAAUACAUGUAAACCA: the cell viability in data set [1] was 76.8%; in data set [2], 85.4%.
The matching figures for UUCGACAACAUGUAAACCA: 61.1% and 91.7%.
The matching figures for UUCGACCACAUGUAAACCA: 35.6% and 93.4%.
Regarding UUCGACGACAUGUAAACCA, the cell viability worked out at 58.1% in data set [1] and 91% in data set [2].
The matching figures for UUCGACUACAUGUAAACCA: 53.7% and 60.8%.
The matching figures for UUCGAGAACAUGUAAACCA: 51.1% and 106%.
The matching figures for UUCGAGCACAUGUAAACCA: 57.2% and 17.1%.
For the sequence UUCGAGGACAUGUAAACCA, the cell viability in data set [1] worked out at 45.7%; in data set [2], 99.8%.
The matching figures for UUCGAGUACAUGUAAACCA: 38.8% and 103%.
The matching figures for UUCGAUAACAUGUAAACCA: 57.4% and 108%.
The matching figures for UUCGAUCACAUGUAAACCA: 59.5% and 79.9%.
For UUCGAUGACAUGUAAACCA, the cell viability stood at 61.3% in data set [1] and 108% in data set [2].
Consider UUCGAUUACAUGUAAACCA, for which the cell viability in data set [1] was 69.8%; in data set [2] it was 79.1%.
The matching figures for UUCGCAAACAUGUAAACCA: 47.2% and 109%.
The matching figures for UUCGCACACAUGUAAACCA: 48.3% and 83.3%.
The matching figures for UUCGCAGACAUGUAAACCA: 37.5% and 118%.
For UUCGCAUACAUGUAAACCA, the cell viability is 44% in data set [1] and 81.1% in data set [2].
The matching figures for UUCGCCAACAUGUAAACCA: 46.5% and 99.2%.
The matching figures for UUCGCCCACAUGUAAACCA: 53.4% and 72%.
The matching figures for UUCGCCGACAUGUAAACCA: 67.8% and 112%.
With UUCGCCUACAUGUAAACCA, the cell viability in data set [1] came to 26.7%; in data set [2], 86.9%.
The matching figures for UUCGCGAACAUGUAAACCA: 66.7% and 119%.
The matching figures for UUCGCGCACAUGUAAACCA: 23.9% and 107%.
Take UUCGCGGACAUGUAAACCA: the cell viability is 56.5% in data set [1] and 116% in data set [2].
The matching figures for UUCGCGUACAUGUAAACCA: 66.8% and 112%.
The matching figures for UUCGCUAACAUGUAAACCA: 71.6% and 91.8%.
The matching figures for UUCGCUCACAUGUAAACCA: 46.3% and 115%.
UUCGCUGACAUGUAAACCA: the cell viability stood at 66.4% in data set [1] and 118% in data set [2].
The matching figures for UUCGCUUACAUGUAAACCA: 54.6% and 102%.

The record behind these values is the supplement of paper PMC8948288.
